# Measured values reported in the supplement of paper PMC3334620.
# In all, about 33,000 sequences were measured (“E-score (-0.5 to 0.5)”: median about -0.017, highest 2% from about 0.3 on). The list shows a part of the results.
# Target: T1, Sut1 (UniProt P53032)
# T1 sequence: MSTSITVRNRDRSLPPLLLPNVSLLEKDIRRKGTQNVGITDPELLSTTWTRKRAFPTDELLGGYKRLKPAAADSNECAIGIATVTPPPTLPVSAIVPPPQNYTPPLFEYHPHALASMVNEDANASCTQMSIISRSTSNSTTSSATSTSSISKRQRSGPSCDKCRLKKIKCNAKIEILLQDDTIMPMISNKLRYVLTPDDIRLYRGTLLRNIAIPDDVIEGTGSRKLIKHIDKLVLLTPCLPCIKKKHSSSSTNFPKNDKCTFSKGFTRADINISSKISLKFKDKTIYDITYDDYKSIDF
# Assay: PBM E-score (8-mer binding enrichment) (E-score (-0.5 to 0.5)); higher = stronger / more preferred TF binding; most listed sequences are background and not binding sites
# Conditions: protein concentration: 200 nM; construct: GST-full length
# Procedure, shortened: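 Using PURExpress in vitro transcription/translation, GST-tagged yeast transcription factors were made in full-length or DNA-binding-domain form. These were applied at about 100-200 nM to double-stranded universal all-10-mer Agilent arrays, and bound protein was detected with fluorescent anti-GST. Scans were normalised with masliner before the Universal PBM Analysis Suite assigned E-scores to ungapped eight-base words pooled with their reverse complements.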
row,Sequence,PBM E-score
1,CGCAAGGA,-0.105
2,AGTGTGTC,-0.0702
3,ATTAGAGA,-0.0252
4,CGAACAAG,-0.0249
5,CCAGTCAG,-0.0847
6,GCATGATA,0.158
7,ACCACTAA,0.121
8,AAGGTGGT,-0.0441
9,ACGACAAT,0.159
10,AAGTGGGT,-0.0361
11,ACATTCGC,-0.171
12,AAGAGTAG,0.0714
13,AAGCGCGT,-0.167
14,TGAGGAAA,0.125
15,CGTGAAGC,-0.224
16,ACCAACGT,0.00237
17,ACGGCTAC,0.0166
18,CAGTTAAG,0.0683
19,CCGGACCC,0.217
20,ATGAAAAA,0.255
21,AAGGACGC,-0.0986
22,ACCGGTCT,-0.115
23,AGTTTCAG,0.0405
24,GAGATGCC,-0.0982
25,ATCAATAC,0.103

row,Sequence,PBM E-score
1,GACAACGA,0.104
2,TAGGTCGA,-0.0499
3,CCCTTATC,-0.0965
4,GGCCCCTA,-0.332
5,CTTTAGCC,0.171
6,CTGTGAAC,0.0291
7,CGTTCGTC,0.00113
8,CATCGTGA,-0.0974
9,ATAGTGGA,0.0992
10,AGAGCTCC,0.0174
11,ACAAACGG,0.128
12,ATACAACA,0.233
13,GTAGGCTA,-0.101
14,ATCGGCAG,-0.0399
15,ACTCACTA,0.0485
16,GTAGATCA,0.0626
17,GAGATAAC,0.132
18,CGAGTAGC,-0.106
19,GTAAGTAA,0.185
20,ATACAGAC,0.203
21,ATAGAGAC,-0.0323
22,CGGCGACC,-0.101
23,CTTATTCC,0.138
24,AGCTTCAC,-0.0282
25,TACCTGGA,-0.0523

row,Sequence,PBM E-score
1,TGAAGTAA,0.0486
2,AAAAGATC,-0.00606
3,AGCGCCAC,-0.217
4,ATCAGGAG,0.044
5,GAGCTCCC,-0.239
6,ACTTAACC,0.191
7,ACGCGCTC,-0.0328
8,CACCATGG,-0.222
9,GTAATCTA,0.234
10,ATCTACAA,0.128
11,AAGGGGAC,-0.255
12,ACATGCGC,-0.115
13,AATAAATT,0.237
14,TGCTATAA,0.144
15,AAGTGGAC,0.00685
16,ATAGTGAG,-0.0473
17,CACATGCA,-0.122
18,ATCAGGTA,-0.0474
19,AGCCTAAA,0.121
20,CCCTGTCG,-0.266
21,AGCAACTG,-0.0572
22,ACTAAAAT,0.244
23,TCGGACGA,0.0715
24,CTATTCCA,0.125
25,GTCCTGAA,-0.16

row,Sequence,PBM E-score
1,ATGCGGCG,-0.233
2,AATCCAGA,0.163
3,CAGAAGAA,0.0645
4,CTGGACAC,-0.227
5,AACATTCT,0.102
6,AAACTGTT,0.241
7,AACTCGTG,-0.127
8,AGCCCGGG,0.0766
9,AATCGCCC,-0.218
10,AGGATCAT,-0.11
11,GCGGGGTA,-0.0426
12,CTAAATAA,0.206
13,TACAATGA,0.153
14,GGTGAGGA,-0.0793
15,GCAATCAA,0.134
16,ATTACCCC,-0.003
17,CCGCGACA,-0.0973
18,GCTACTAC,0.199
19,ATTTGGAC,0.14
20,TAGCAAGA,-0.0814
21,AAGCACGT,-0.108
22,CGGTCATA,0.0613
23,ATAGCGGC,-0.127
24,ATATTAGC,0.13
25,AGGTCACG,-0.186

row,Sequence,PBM E-score
1,GGTAGGAC,-0.186
2,AATGACAC,-0.00894
3,CCTAGCAC,-0.111
4,CAATTACA,0.178
5,ACCACCGC,0.0358
6,CCGGACAG,0.241
7,CATAGAGA,-0.00333
8,CCCGGAAG,0.206
9,CCCGCCTC,-0.301
10,AGACGCTA,-0.162
11,AATGGCAA,0.0477
12,CGGAAATC,0.212
13,ACTATAGC,-0.106
14,ACGTTCAC,-0.0111
15,CTGTACAC,-0.0995
16,TAAGATTA,0.092
17,CTCGACGC,-0.0325
18,CCATCTAC,0.00483
19,CCAGATGG,-0.267
20,ATTAATGC,-0.0368
21,CGCAAAGA,0.0658
22,CACAAGAG,-0.0826
23,GCTGCTCA,-0.176
24,ATGGATCG,0.0974
25,ACCCGCTC,-0.445

row,Sequence,PBM E-score
1,GAATGCAC,0.117
2,CACCGCTG,-0.261
3,AGAACTAC,0.0481
4,GAAGCCAA,0.0605
5,CAGCATGC,-0.231
6,ATGGCTCG,-0.126
7,ATCCTTCC,-0.295
8,TGCGCGCA,-0.29
9,CTCACTCA,0.12
10,CGACAAGA,0.042
11,ATAGGGAA,0.0196
12,GGCACTCA,-0.374
13,TAATTAGA,0.218
14,AATGCCGG,0.151
15,AGCCATTA,0.075
16,GTCAGCAA,0.0566
17,ACCATCGA,-0.151
18,ACACGTTC,0.00118
19,TGACATCA,-0.0471
20,AAGAAACC,0.13
21,ACATTTGA,0.034
22,TAAGCGAA,0.175
23,AATCTTGC,0.0892
24,ACGGCCGG,-0.0505
25,GTTGCAAC,0.205

row,Sequence,PBM E-score
1,CTACATAA,-0.0515
2,CATAGGCC,-0.26
3,ACTATTAC,0.129
4,CCTGGAGC,-0.256
5,CTAAAGTC,0.00063
6,TATAACCA,0.195
7,CTTGGCGA,-0.156
8,AAGAGCTA,-0.0379
9,CAAGGATG,-0.253
10,AGACCAAC,-0.00773
11,CCAACCTC,-0.0984
12,GGCTCAAA,-0.00447
13,ACTCGCCC,-0.247
14,AAAAATAT,0.248
15,GCGATCAC,-0.132
16,ACGCTATG,-0.184
17,CTAGGATA,-0.137
18,CGTGAACG,-0.207
19,CCATTCCC,-0.15
20,CGTTCACC,0.117
21,AAAACGTA,0.125
22,ATTGATTG,0.161
